153 variants from a collection of fitness landscapes (doi:10.1016/j.celrep.2020.107928) can be followed below.

B1: Caulobacter ParB omega fusion; a variant is named by its letters at X, in order, B8GW30 (parent)
chain: MESVVVGEPGMSEGRRGLGRGLSALLGEVDAAPAQAPGEQLGGSREAPIEILQRNPDQPRRTFREEDLEDLSNSIREKGVLQPILVRPSPDTAGEYQIVAGERAWRAAQRAGLKTVPIMVRELDDLAVLEIGIIENVQRADLNVLEEALSYKVLMEKFERTQENIAQTIGKSXSHVANXMRLLXLPDEVQSYLVSGELTAXHARAIAAAADPVALAKQIIEGGLSVRETEALARKAPNLSAGKSKGGRPPRVKDTDTQALESDLSSVLGLDVSIDHRGSTGTLTITYATLEQLDDLCNRLTRGI

Whole data set: some 81,000 sequences, median “one-hybrid fitness for binding parS DNA” near -0.17, cut for the highest 2% near 0.51. Some of the results follow.

Variants of B1 are the subject of the experiment. Briefly: one-hybrid fitness for binding parS DNA (scaled: cognate 1, non-cognate 0); higher = stronger binding. The note with it: with parS DNA site. In short, it runs like this: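 In E. coli USO, a HIS3 reporter with its site placed 19 bp from the promoter was used to select Caulobacter ParB variants randomised at four specificity codons. Growth lasted 48 hours at 37°C on histidine-free M9 containing 0.1 mM IPTG and 5 mM 3-AT. Fitness was taken as the log change in variant-to-wild-type read ratio from Illumina sequencing of pre- and post-selection plasmids, rescaled between the non-cognate and cognate sites.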
PRLM: the “one-hybrid fitness for binding parS DNA” value is ≤ 0.2.
For the variant IPPC, the “one-hybrid fitness for binding parS DNA” value is ≤ 0.2.
With SIWS, the “one-hybrid fitness for binding parS DNA” value was ≤ 0.2.
Then NPNR, with ≤ 0.2; and TQAF, with ≤ 0.2; and LQAF, with ≤ 0.2.
As for SLRD, the “one-hybrid fitness for binding parS DNA” value is ≤ 0.2.
Then GDWS, with ≤ 0.2.
Then PIWE, with ≤ 0.2; and VFLG, with ≤ 0.2.
In the case of TIDS, the “one-hybrid fitness for binding parS DNA” value was ≤ 0.2.
The value for CSVW was ≤ 0.2.
Then QCSE, with ≤ 0.2; and GWKM, with ≤ 0.2; and AKPS, with ≤ 0.2.
For the variant KMSV, the “one-hybrid fitness for binding parS DNA” value was ≤ 0.2.
Consider KKAM, for which the “one-hybrid fitness for binding parS DNA” value is ≤ 0.2.
The value for RPME was ≤ 0.2.
Then NVNG, with ≤ 0.2.
Then ICWE, with 0.344; and TNCG, with ≤ 0.2.
Turning to DYPL, the “one-hybrid fitness for binding parS DNA” value is ≤ 0.2.
As to WKNR, the “one-hybrid fitness for binding parS DNA” value was ≤ 0.2.
The value for QLFA was ≤ 0.2; that for LQKI was ≤ 0.2.
Then CGMG, with ≤ 0.2; and FPCM, with ≤ 0.2.
Then DGRC, with ≤ 0.2; and RTHA, with 0.61.
With WVLT, the “one-hybrid fitness for binding parS DNA” value was ≤ 0.2.
The value for QLAM was ≤ 0.2; that for QREY was ≤ 0.2.
Then PRPH, with ≤ 0.2; and QILC, with ≤ 0.2.
As to VEHK, the “one-hybrid fitness for binding parS DNA” value is ≤ 0.2.
The value for DVSC was ≤ 0.2.
On to GIGA, for which the “one-hybrid fitness for binding parS DNA” value was ≤ 0.2.
For the variant LRVF, the “one-hybrid fitness for binding parS DNA” value was ≤ 0.2.
With LGDR, the “one-hybrid fitness for binding parS DNA” value is ≤ 0.2.
Then NCNT, with ≤ 0.2.
Then APSM, with ≤ 0.2; and PYAH, with ≤ 0.2; and FHEV, with ≤ 0.2.
Consider VMYG, for which the “one-hybrid fitness for binding parS DNA” value is ≤ 0.2.
PAIF: the “one-hybrid fitness for binding parS DNA” value was ≤ 0.2.
Then APAP, with ≤ 0.2; and PLAH, with ≤ 0.2.
The value for AVQG was ≤ 0.2.
The value for PPSM was ≤ 0.2.
GLFL: the “one-hybrid fitness for binding parS DNA” value was ≤ 0.2.
Then MFYR, with ≤ 0.2; and SSMI, with ≤ 0.2; and PRPR, with ≤ 0.2.
The value for SRGD was ≤ 0.2; that for QQCN was ≤ 0.2; that for ENPS was ≤ 0.2.
The value for PSLN was ≤ 0.2; that for LETG was ≤ 0.2.
RPVK: the “one-hybrid fitness for binding parS DNA” value was ≤ 0.2.
The value for GSTL was ≤ 0.2; that for RCDY was 0.414; that for HHSV was ≤ 0.2.
The value for MTIS was ≤ 0.2; that for LTWR was ≤ 0.2.
Then AHTQ, with ≤ 0.2; and MGKG, with ≤ 0.2; and AILE, with ≤ 0.2.
PDER: the “one-hybrid fitness for binding parS DNA” value was ≤ 0.2.
Then EHTG, with ≤ 0.2; and DAAV, with ≤ 0.2; and LAVL, with ≤ 0.2.
Then VHMS, with ≤ 0.2; and DYPY, with ≤ 0.2; and KRQR, with ≤ 0.2.
The value for PCMR was ≤ 0.2; that for YEDL was ≤ 0.2; that for WRFC was ≤ 0.2.
With SRNT, the “one-hybrid fitness for binding parS DNA” value is ≤ 0.2.
Then RALN, with 0.431; and EQSW, with ≤ 0.2.
Then VVWT, with ≤ 0.2.
Then TKKF, with ≤ 0.2; and HQHC, with ≤ 0.2.
In the case of NLID, the “one-hybrid fitness for binding parS DNA” value is ≤ 0.2.
Then HTWF, with ≤ 0.2.
Then LPEW, with ≤ 0.2.
For the variant MAMR, the “one-hybrid fitness for binding parS DNA” value is ≤ 0.2.
The value for YSCK was ≤ 0.2.
The value for YHYY was ≤ 0.2; that for ATKM was ≤ 0.2; that for VPVG was ≤ 0.2.
Then FRWR, with ≤ 0.2; and KRMV, with ≤ 0.2.
As to PNWD, the “one-hybrid fitness for binding parS DNA” value was ≤ 0.2.
Then TRKV, with ≤ 0.2.
The value for LQDS was ≤ 0.2.
Then TFVI, with ≤ 0.2; and RDPY, with ≤ 0.2.
Consider TNMS, for which the “one-hybrid fitness for binding parS DNA” value was ≤ 0.2.
On to HKNN, for which the “one-hybrid fitness for binding parS DNA” value was ≤ 0.2.
Then EECL, with ≤ 0.2; and GCLA, with ≤ 0.2.
Then PNTY, with ≤ 0.2; and DQMG, with ≤ 0.2.
The value for PTHT was ≤ 0.2; that for QQSV was ≤ 0.2.
On to NVYP, for which the “one-hybrid fitness for binding parS DNA” value was ≤ 0.2.
As to SPQG, the “one-hybrid fitness for binding parS DNA” value is ≤ 0.2.
On to AWAV, for which the “one-hybrid fitness for binding parS DNA” value is ≤ 0.2.
Then DSPF, with ≤ 0.2; and HHWF, with ≤ 0.2.
Turning to KGRC, the “one-hybrid fitness for binding parS DNA” value is ≤ 0.2.
Then IGIR, with ≤ 0.2; and DKLW, with ≤ 0.2; and PPFN, with ≤ 0.2.
The value for GNAG was ≤ 0.2; that for GHPH was ≤ 0.2.
The value for YNSF was ≤ 0.2; that for THGV was ≤ 0.2.
For NDES, the “one-hybrid fitness for binding parS DNA” value was ≤ 0.2.
Then RSFE, with ≤ 0.2.
The value for WWAR was ≤ 0.2.
Then TACR, with ≤ 0.2.
Turning to RLQI, the “one-hybrid fitness for binding parS DNA” value was ≤ 0.2.
Then GPPR, with ≤ 0.2; and QSMG, with ≤ 0.2.
The value for PWNT was ≤ 0.2.
QHSE: the “one-hybrid fitness for binding parS DNA” value is ≤ 0.2.
Then SRIY, with ≤ 0.2.
The value for ICTW was ≤ 0.2; that for CPTR was ≤ 0.2; that for LCRG was ≤ 0.2.
The value for TDRC was ≤ 0.2.
KTDE: the “one-hybrid fitness for binding parS DNA” value is ≤ 0.2.
Then YRYR, with ≤ 0.2.
The value for RPGS was ≤ 0.2; that for DLLT was ≤ 0.2; that for LSIL was ≤ 0.2.
Consider TIFG, for which the “one-hybrid fitness for binding parS DNA” value was ≤ 0.2.
Then YLTA, with ≤ 0.2; and PLSE, with ≤ 0.2.
The value for WKAC was ≤ 0.2; that for GHIG was ≤ 0.2; that for RNGA was 0.496.
Then AYTY, with ≤ 0.2; and WGKE, with ≤ 0.2.
As for QEMI, the “one-hybrid fitness for binding parS DNA” value was ≤ 0.2.
Consider KTIL, for which the “one-hybrid fitness for binding parS DNA” value was ≤ 0.2.
As to SLCG, the “one-hybrid fitness for binding parS DNA” value is ≤ 0.2.
Regarding TAEI, the “one-hybrid fitness for binding parS DNA” value is ≤ 0.2.
Then NPHS, with ≤ 0.2.
For SAFL, the “one-hybrid fitness for binding parS DNA” value is ≤ 0.2.
The value for LRTG was ≤ 0.2.
